Data reported in the antibiotic and cytotoxicity screens of Wong et al. (2023).
Some of the results follow.

Each compound was assayed on S. aureus RN4220 (assay: growth inhibition call (relative growth <= 0.2)). Conditions: 50 µM.

Growth inhibition call, inactive:
CC(C)NC(=O)Nc1ccc2c(c1)CC(=O)N([C@@H](C)CO)C[C@H](C)[C@@H](CN(C)S(=O)(=O)c1ccc(F)cc1)O2, COCC#Cc1ccc2c(c1)O[C@@H](CN(C)C(=O)c1ccccc1F)[C@@H](C)CN([C@@H](C)CO)S2(=O)=O, COc1cccc(-c2ccc3c(c2)O[C@@H](CN(C)C(=O)C2CC2)[C@H](C)CN([C@@H](C)CO)S3(=O)=O)c1, C[C@@H]1CN([C@@H](C)CO)C(=O)c2cc(NC(=O)Nc3ccc(F)cc3)ccc2O[C@@H]1CN(C)CC1CCCCC1, COc1ccc(NC(=O)Nc2cccc3c2O[C@@H](CN(C)Cc2ccc(C(F)(F)F)cc2)[C@@H](C)CN([C@@H](C)CO)C3=O)cc1, COc1ccccc1S(=O)(=O)N1C[C@@H](O)COC[C@@H]2O[C@@H](CC(=O)O)CC[C@H]21, CC/C=C\C/C=C\C/C=C\C/C=C\C/C=C\C/C=C\CCC(=O)OCC, C[C@@H]1CN([C@@H](C)CO)C(=O)c2c(c3ccccc3n2C)-c2ccccc2CO[C@@H]1CN(C)Cc1ccccc1, O=C1CCNCCN1, C[C@H](CO)N1C[C@H](C)[C@@H](CN(C)C(=O)CCC(F)(F)F)OCCCC[C@H](C)Oc2ccc(NC(=O)CCC(F)(F)F)cc2C1=O, C[C@H]1CCCCO[C@@H](CN(C)S(=O)(=O)c2ccc(F)cc2)[C@@H](C)CN([C@@H](C)CO)C(=O)c2cc(NC(=O)CCC(F)(F)F)ccc2O1, COC(=O)C1=CO[C@@H](O[C@@H]2O[C@H](CO)[C@@H](O)[C@H](O)[C@H]2O)[C@@H]2[C@@](C)(O)[C@@H](OC(=O)/C=C/c3ccc(O)cc3)C[C@]12O, C[C@H](CO)N1C[C@H](C)[C@@H](CN(C)Cc2ccc(Oc3ccccc3)cc2)Oc2ccc(NC(=O)Nc3ccc4c(c3)OCO4)cc2C1=O, CCCN(C)C[C@@H]1OCCCC[C@H](C)Oc2ccc(NC(=O)Nc3ccc(F)cc3)cc2C(=O)N([C@H](C)CO)C[C@@H]1C, C[C@@H]1CN([C@H](C)CO)C(=O)c2cc(NC(=O)C3CCCCC3)ccc2O[C@@H](C)CCCCO[C@H]1CN(C)Cc1ccncc1, C[C@H]1CN([C@@H](C)CO)C(=O)c2cc(NC(=O)CCCN(C)C)ccc2O[C@@H]1CN(C)S(=O)(=O)c1cn(C)cn1, NCc1ccc(-c2nc3ccccc3o2)cc1, COc1ccc(S(=O)(=O)Nc2cccc3c2O[C@H](CN(C)Cc2ccc(-c4ccccc4)cc2)[C@H](C)CN([C@@H](C)CO)C3=O)cc1, Cc1noc(C)c1NC(=O)N(C)C[C@@H]1OCCCC[C@@H](C)Oc2ccc(NS(=O)(=O)c3ccc(F)cc3)cc2C(=O)N([C@H](C)CO)C[C@@H]1C, C[C@@H]1CN([C@@H](C)CO)C(=O)c2cccc(NS(=O)(=O)c3cn(C)cn3)c2O[C@@H]1CN(C)Cc1ccc(C(=O)Nc2ccccc2N)cc1, O=C(CCCCC(=O)N/N=C/[C@H](O)[C@@H](O)[C@H](O)CO)NO
